B1: BAFFR DUP92-95-GFP fusion protein (receptor, human)
chain: [about 80 residues not given here]FGAPALLGLALVLALVLALVLVGLVSWRRRQRRLRGASSAEAPDGDKDAPEPLDKVIILSPGISDATAPAWPPPGEDPGTTPPGHSVPVPATELGSTELVTTKTAGPEQQ
notes: BAFFR, natural variant with a duplication of four residues in the TM region, printed as LALV from position 92 to 95; both readings give the same product; source: DG-75 BAFFR KO cells, lentiviral gene transfer, on or in cells; not shown: GFP, C-terminal, kept
B2: BAFFR P21R-GFP fusion protein (receptor, human)
chain: [about 80 residues with changes not given here]FGAPALLGLALVLALVLVGLVSWRRRQRRLRGASSAEAPDGDKDAPEPLDKVIILSPGISDATAPAWPPPGEDPGTTPPGHSVPVPATELGSTELVTTKTAGPEQQ
notes: BAFFR, natural variant P21R; source: DG-75 BAFFR KO cells, lentiviral gene transfer, on or in cells; not shown: GFP, C-terminal, kept
B3: BAFFR G64V-GFP fusion protein (receptor, human)
chain: [about 80 residues with changes not given here]FGAPALLGLALVLALVLVGLVSWRRRQRRLRGASSAEAPDGDKDAPEPLDKVIILSPGISDATAPAWPPPGEDPGTTPPGHSVPVPATELGSTELVTTKTAGPEQQ
notes: BAFFR, natural variant G64V; source: DG-75 BAFFR KO cells, lentiviral gene transfer, on or in cells; not shown: GFP, C-terminal, kept
B4: BAFFR A52T-GFP fusion protein (receptor, human)
chain: [about 80 residues with changes not given here]FGAPALLGLALVLALVLVGLVSWRRRQRRLRGASSAEAPDGDKDAPEPLDKVIILSPGISDATAPAWPPPGEDPGTTPPGHSVPVPATELGSTELVTTKTAGPEQQ
notes: BAFFR, natural variant A52T; source: DG-75 BAFFR KO cells, lentiviral gene transfer, on or in cells; not shown: GFP, C-terminal, kept

What follows are binders tested against T1, CD79B-RFP fusion protein (UniProt P40259 29-229) (assay: FRET or BRET; FRET from GFP to RFP read by flow cytometry (percent FRET+ cells) in DG-75 BAFFR KO cells co-expressing WT or variant BAFFR-GFP and CD79B-RFP; without ligand or 1 h after adding 100 ng/ml BAFF). Conditions: partners not purified.
T1 construct: B cell antigen receptor component CD79B; source: DG-75 BAFFR KO cells, lentiviral transduction, in cells
T1 sequence (looked up): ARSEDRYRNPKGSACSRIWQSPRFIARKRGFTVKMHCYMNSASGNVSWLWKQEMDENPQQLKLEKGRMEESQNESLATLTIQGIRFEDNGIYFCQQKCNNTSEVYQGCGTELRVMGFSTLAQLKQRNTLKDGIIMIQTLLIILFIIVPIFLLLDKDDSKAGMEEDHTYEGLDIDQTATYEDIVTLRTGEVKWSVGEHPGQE

Binder	percent FRET+ cells, without ligand [%]
B1	14
B2	18
B3	14
B4	17
